In the supplement of paper PMC8728848:
Some of the results follow.

Legend:
Assay in all cases: glycan array binding signal (z-score within array); higher = stronger binding
Details in all cases: glycan notation: IUPAC condensed, linker removed; mutation: H262T
[1] = molecular target: Man(a1-3)[Man(a1-6)]Man(a1-6)[Man(a1-2)Man(a1-3)]Man(b1-4)GlcNAc(b1-4)GlcNAc
Outline: (§1)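 The Consortium for Functional Glycomics database supplied 3228 glycan arrays, of which those lacking an available protein sequence were dropped. The binding signal, a within-array Z-score, was averaged across arrays of the same protein sequence and across linkers. Negative scores can be read as non-binding.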

[2] = molecular target: Man(a1-3)[Man(a1-6)]Man(a1-6)[Man(a1-3)]Man
Outline: as §1

[3] = molecular target: Man(a1-3)[Man(a1-6)]Man(a1-6)[Man(a1-3)]Man(b1-4)GlcNAc(b1-4)GlcNAc
Outline: as §1

[4] = molecular target: Man(a1-3)[Man(a1-6)]Man(b1-4)GlcNAc(b1-4)GlcNAc
Outline: as §1

[5] = molecular target: Man(a1-3)[Man(a1-6)]Man(b1-4)GlcNAc(b1-4)[Fuc(a1-6)]GlcNAc
Outline: as §1

Man(a1-6)Man = molecular target: Man(a1-6)Man
Outline: as §1

Man(b1-4)GlcNAc = molecular target: Man(b1-4)GlcNAc
Outline: as §1

MurNAc(b1-4)GlcNAc = molecular target: MurNAc(b1-4)GlcNAc
Outline: as §1

Neu5Ac(a2-3)Gal = molecular target: Neu5Ac(a2-3)Gal
Outline: as §1

[6] = molecular target: Neu5Ac(a2-3)Gal(b1-3)GalNAc
Outline: as §1

[7] = molecular target: Neu5Ac(a2-3)Gal(b1-3)GalNAc(b1-3)Gal(a1-4)Gal(b1-4)Glc
Outline: as §1

[8] = molecular target: Neu5Ac(a2-3)Gal(b1-3)GalNAc(b1-4)[Neu5Ac(a2-3)]Gal(b1-4)Glc
Outline: as §1

[9] = molecular target: Neu5Ac(a2-3)Gal(b1-3)GalNAc(b1-4)[Neu5Ac(a2-8)Neu5Ac(a2-3)]Gal(b1-4)Glc
Outline: as §1

[10] = molecular target: Neu5Ac(a2-3)Gal(b1-3)GalNAc6S
Outline: as §1

[11] = molecular target: Neu5Ac(a2-3)Gal(b1-3)GlcNAc
Outline: as §1

[12] = molecular target: Neu5Ac(a2-3)Gal(b1-3)GlcNAc(b1-2)Man
Outline: as §1

[13] = molecular target: Neu5Ac(a2-3)Gal(b1-3)GlcNAc(b1-2)Man(a1-3)[GlcNAc(b1-4)][Neu5Ac(a2-3)Gal(b1-3)GlcNAc(b1-2)Man(a1-6)]Man(b1-4)GlcNAc(b1-4)GlcNAc
Outline: as §1

[14] = molecular target: Neu5Ac(a2-3)Gal(b1-3)GlcNAc(b1-2)Man(a1-3)[Neu5Ac(a2-3)Gal(b1-3)GlcNAc(b1-2)Man(a1-6)]Man(b1-4)GlcNAc(b1-4)GlcNAc
Outline: as §1

[15] = molecular target: Neu5Ac(a2-3)Gal(b1-3)GlcNAc(b1-2)[Neu5Ac(a2-3)Gal(b1-3)GlcNAc(b1-4)]Man(a1-6)[Neu5Ac(a2-3)Gal(b1-3)GlcNAc(b1-2)Man(a1-3)]Man(b1-4)GlcNAc(b1-4)GlcNAc
Outline: as §1

[16] = molecular target: Neu5Ac(a2-3)Gal(b1-3)GlcNAc(b1-3)Gal(b1-3)GlcNAc
Outline: as §1

[17] = molecular target: Neu5Ac(a2-3)Gal(b1-3)GlcNAc(b1-3)Gal(b1-4)GlcNAc
Outline: as §1

[18] = molecular target: Neu5Ac(a2-3)Gal(b1-3)GlcNAc(b1-3)GalNAc
Outline: as §1

[19] = molecular target: Neu5Ac(a2-3)Gal(b1-3)GlcNAc(b1-4)Gal(b1-4)Glc
Outline: as §1

[20] = molecular target: Neu5Ac(a2-3)Gal(b1-3)GlcNAc(b1-6)GalNAc
Outline: as §1

[21] = molecular target: Neu5Ac(a2-3)Gal(b1-3)GlcNAc6S
Outline: as §1

[22] = molecular target: Neu5Ac(a2-3)Gal(b1-3)[Fuc(a1-4)]GlcNAc
Outline: as §1

[23] = molecular target: Neu5Ac(a2-3)Gal(b1-3)[Fuc(a1-4)]GlcNAc(b1-3)Gal(b1-3)[Fuc(a1-4)]GlcNAc
Outline: as §1

[24] = molecular target: Neu5Ac(a2-3)Gal(b1-3)[Fuc(a1-4)]GlcNAc(b1-3)Gal(b1-4)[Fuc(a1-3)]GlcNAc
Outline: as §1

[25] = molecular target: Neu5Ac(a2-3)Gal(b1-3)[GlcNAc(b1-6)]GalNAc
Outline: as §1

[26] = molecular target: Neu5Ac(a2-3)Gal(b1-3)[Neu5Ac(a2-6)]GalNAc
Outline: as §1

[27] = molecular target: Neu5Ac(a2-3)Gal(b1-3)[Neu5Ac(a2-6)]GlcNAc(b1-3)[Fuc(a1-3)[Gal(b1-4)]GlcNAc(b1-6)]Gal(b1-4)Glc
Outline: as §1

[28] = molecular target: Neu5Ac(a2-3)Gal(b1-3)]Neu5Ac(a2-3)Gal(b1-4)]GlcNAc
Outline: as §1

Neu5Ac(a2-3)Gal(b1-4)Glc = molecular target: Neu5Ac(a2-3)Gal(b1-4)Glc
Outline: as §1

[29] = molecular target: Neu5Ac(a2-3)Gal(b1-4)GlcNAc
Outline: as §1

[30] = molecular target: Neu5Ac(a2-3)Gal(b1-4)GlcNAc(b1-2)Man
Outline: as §1

[31] = molecular target: Neu5Ac(a2-3)Gal(b1-4)GlcNAc(b1-2)Man(a1-3)[GlcNAc(b1-4)][Neu5Ac(a2-3)Gal(b1-4)GlcNAc(b1-2)Man(a1-6)]Man(b1-4)GlcNAc(b1-4)GlcNAc
Outline: as §1

[32] = molecular target: Neu5Ac(a2-3)Gal(b1-4)GlcNAc(b1-2)Man(a1-3)[Neu5Ac(a2-3)Gal(b1-4)GlcNAc(b1-2)Man(a1-6)]Man(b1-4)GlcNAc(b1-4)GlcNAc
Outline: as §1

[33] = molecular target: Neu5Ac(a2-3)Gal(b1-4)GlcNAc(b1-2)Man(a1-3)[Neu5Ac(a2-3)Gal(b1-4)GlcNAc(b1-2)Man(a1-6)]Man(b1-4)GlcNAc(b1-4)[Fuc(a1-6)]GlcNAc
Outline: as §1

B1: MGL6A (Homo sapiens) (protein)
chain: MTRTYENFQYLENKVKVQGFKNGPLPLQSLLQRLCSGPCHLLLSLGLGLLLLVIICVVGFQNSKFQRDLVTLRTDFSNFTSNTVAEIQALTSQGSSLEETIASLKAEVEGFKQERQAVHSEMLLRVQQLVQDLKKLTCQVATLNNNGEEASTEGTCCPVNWVEHQDSCYWFSHSGMSWAEAEKYCQLKNAHLVVINSREEQNFVQKYLGSAYTWMGLSDPEGAWKWVDGTDYATGFQNWKPGQPDDWQGHGLGGGEDCAHFTPDGRWNDDVCQRPYHWVCEAGLGQTSQESH
glycan array binding signal (z-score) [1]: -0.153
glycan array binding signal (z-score) [2]: -0.167
glycan array binding signal (z-score) [3]: -0.163
glycan array binding signal (z-score) [4]: -0.176
glycan array binding signal (z-score) [5]: -0.172
glycan array binding signal (z-score) (Man(a1-6)Man): -0.176
glycan array binding signal (z-score) (Man(b1-4)GlcNAc): -0.172
glycan array binding signal (z-score) (MurNAc(b1-4)GlcNAc): -0.172
glycan array binding signal (z-score) (Neu5Ac(a2-3)Gal): -0.177
glycan array binding signal (z-score) [6]: -0.16
glycan array binding signal (z-score) [7]: -0.176
glycan array binding signal (z-score) [8]: -0.172
glycan array binding signal (z-score) [9]: -0.177
glycan array binding signal (z-score) [10]: -0.171
glycan array binding signal (z-score) [11]: -0.176
glycan array binding signal (z-score) [12]: -0.176
glycan array binding signal (z-score) [13]: -0.177
glycan array binding signal (z-score) [14]: -0.174
glycan array binding signal (z-score) [15]: -0.175
glycan array binding signal (z-score) [16]: -0.177
glycan array binding signal (z-score) [17]: -0.176
glycan array binding signal (z-score) [18]: -0.173
glycan array binding signal (z-score) [19]: -0.175
glycan array binding signal (z-score) [20]: 2.9
glycan array binding signal (z-score) [21]: -0.17
glycan array binding signal (z-score) [22]: -0.178
glycan array binding signal (z-score) [23]: -0.172
glycan array binding signal (z-score) [24]: -0.157
glycan array binding signal (z-score) [25]: -0.31
glycan array binding signal (z-score) [26]: -0.177
glycan array binding signal (z-score) [27]: -0.17
glycan array binding signal (z-score) [28]: -0.169
glycan array binding signal (z-score) (Neu5Ac(a2-3)Gal(b1-4)Glc): -0.166
glycan array binding signal (z-score) [29]: -0.178
glycan array binding signal (z-score) [30]: -0.155
glycan array binding signal (z-score) [31]: -0.176
glycan array binding signal (z-score) [32]: -0.123
glycan array binding signal (z-score) [33]: -0.17
